Some of the results follow. The data describe in vitro nicking of single-stranded DNA by Rep domains for 1 h at 37 °C with 3 µM enzyme; only the middle of the 90-letter strands is printed. Values are log2 of uncut reads against the no-enzyme pool; strong cutting gives strongly negative numbers. There is no active / inactive call. Reads are scaled to the total; values above 0 arise when much of the pool is cut.
The sequences below were run on T1, Rep nickase domain of maize striate mosaic virus (assay: uncleaved DNA left, log2 of reads against the no-enzyme library (log2 ratio); higher = less cleavage (more negative = more Rep cleavage of the k-mer); sequences stand for … in CTCGTCCG…ACCGGAGA).
T1 sequence (protein, residues 1-117, tag omitted): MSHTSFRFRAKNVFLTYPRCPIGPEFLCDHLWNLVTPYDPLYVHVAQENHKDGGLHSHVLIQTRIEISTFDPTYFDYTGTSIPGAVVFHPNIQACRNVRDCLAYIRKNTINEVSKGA
Procedure: (§1)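 A pool of 90-nt single-stranded DNAs with seven random bases just before the constant AC of the nick site (name = the seven bases) was cut by 3 µM recombinant His6-SUMO-tagged Rep nickase domain (300 nM DNA, 50 mM HEPES pH 8.0, 50 mM NaCl, 1 mM MnCl2, 1 h, 37 °C, three replicates). Uncut DNA was amplified and sequenced.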

Sequence	uncleaved DNA left (log2)
ACGGTGG	-0.966
GGCACGG	2.05
CTTTTAT	-0.52
CTGTATT	-0.471
TCGTAAA	-0.255
CTTCTGA	-0.582
AGGTGCT	-0.516
GGGGACT	2.4
TCTGTCC	0.178
GAGTATA	1.14
ATAAGGC	-1.04
GCCCAAA	0.353
CACGCCA	-0.42
TCCACGG	2.09
TAACAGC	-1.24
GTGAACG	-0.52
CATGCCT	-1.32
GACTTCA	0.843
AAGAGGT	1.82
TTGTGAT	0.867

Sequence	uncleaved DNA left (log2)
TCTGTCA	-0.395
ATCTCCC	0.811
GGGAGAT	2.24
CCGCGCC	-0.701
TAGCCCA	-0.15
CAGAAAA	-0.723
GATACGT	0.432
ATCGGGG	1.82
TTTAAGT	-0.987
CTGGGCT	0.133
AAATTTG	-1.19
GTCAGTT	1.38
AGAGAGA	0.495
ATAGGAA	1.57
TCCCATT	-0.665
ACCACAG	-0.443
CTGTTCA	-0.581
ATGCGGA	-1.19
CACAGTT	-0.0982
TTGACAA	1.24

These sequences were tested on T2, Rep nickase domain of porcine circovirus 2 in the same assay as above.
T2 sequence (protein, residues 2-116, tag omitted): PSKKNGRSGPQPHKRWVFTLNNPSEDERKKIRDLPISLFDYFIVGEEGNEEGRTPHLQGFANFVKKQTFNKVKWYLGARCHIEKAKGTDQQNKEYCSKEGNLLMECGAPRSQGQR
Procedure: as §1

Sequence	uncleaved DNA left (log2)
ACGGTGG	0.0424
GGCACGG	0.082
CTTTTAT	-1.17
CTGTATT	-3.54
TCGTAAA	0.0455
CTTCTGA	-0.0534
AGGTGCT	-3.02
GGGGACT	0.28
TCTGTCC	0.0261
GAGTATA	-2.55
ATAAGGC	0.102
GCCCAAA	0.14
CACGCCA	-0.0772
TCCACGG	0.054
TAACAGC	0.0898
GTGAACG	0.143
CATGCCT	-0.311
GACTTCA	-1.95
AAGAGGT	-0.193
TTGTGAT	-2.08

Sequence	uncleaved DNA left (log2)
TCTGTCA	-0.133
ATCTCCC	-0.243
GGGAGAT	0.172
CCGCGCC	-0.202
TAGCCCA	-1.56
CAGAAAA	-0.338
GATACGT	-0.0473
ATCGGGG	0.263
TTTAAGT	-0.431
CTGGGCT	0.213
AAATTTG	0.132
GTCAGTT	-0.0214
AGAGAGA	0.162
ATAGGAA	0.287
TCCCATT	-0.695
ACCACAG	0.269
CTGTTCA	-0.206
ATGCGGA	-0.0383
CACAGTT	-2.17
TTGACAA	0.0795

These sequences were tested on T3, Rep nickase domain of tomato golden mosaic virus in the same assay as above.
T3 sequence (protein, residues 1-124, tag omitted): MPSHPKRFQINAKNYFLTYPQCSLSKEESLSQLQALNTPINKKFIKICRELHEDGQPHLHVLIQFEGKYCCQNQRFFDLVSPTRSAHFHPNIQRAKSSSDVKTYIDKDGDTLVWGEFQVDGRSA
Procedure: as §1

Sequence	uncleaved DNA left (log2)
ACGGTGG	-0.0764
GGCACGG	0.0588
CTTTTAT	-0.0663
CTGTATT	-0.49
TCGTAAA	0.0646
CTTCTGA	-0.0698
AGGTGCT	0.035
GGGGACT	0.108
TCTGTCC	-0.0931
GAGTATA	-0.0109
ATAAGGC	-0.0479
GCCCAAA	-0.017
CACGCCA	0.048
TCCACGG	0.164
TAACAGC	-0.021
GTGAACG	0.0707
CATGCCT	-0.199
GACTTCA	-0.0709
AAGAGGT	0.0692
TTGTGAT	0.0733

Sequence	uncleaved DNA left (log2)
TCTGTCA	-0.0614
ATCTCCC	-0.00786
GGGAGAT	0.0767
CCGCGCC	-0.262
TAGCCCA	-0.0421
CAGAAAA	0.024
GATACGT	-0.0161
ATCGGGG	0.0696
TTTAAGT	-0.209
CTGGGCT	0.0277
AAATTTG	0.0564
GTCAGTT	-0.0125
AGAGAGA	0.0747
ATAGGAA	0.105
TCCCATT	-0.198
ACCACAG	0.0276
CTGTTCA	-0.144
ATGCGGA	-0.0172
CACAGTT	-0.00358
TTGACAA	0.00658

Each sequence was assayed on T4, Rep nickase domain of tomato yellow leaf curl virus in the same assay as above.
T4 sequence (protein, residues 1-136, tag omitted): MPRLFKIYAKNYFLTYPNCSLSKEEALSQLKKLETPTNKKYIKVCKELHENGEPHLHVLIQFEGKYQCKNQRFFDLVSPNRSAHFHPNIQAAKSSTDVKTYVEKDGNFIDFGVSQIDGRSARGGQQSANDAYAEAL
Procedure: as §1

Sequence	uncleaved DNA left (log2)
ACGGTGG	-0.144
GGCACGG	-0.049
CTTTTAT	0.0437
CTGTATT	0.0829
TCGTAAA	0.0503
CTTCTGA	0.0381
AGGTGCT	-0.0446
GGGGACT	0.111
TCTGTCC	0.0287
GAGTATA	0.0846
ATAAGGC	-0.00855
GCCCAAA	0.0162
CACGCCA	-0.114
TCCACGG	-0.094
TAACAGC	0.0176
GTGAACG	-0.0195
CATGCCT	-0.044
GACTTCA	-0.0621
AAGAGGT	-0.143
TTGTGAT	0.0465

Sequence	uncleaved DNA left (log2)
TCTGTCA	-0.0157
ATCTCCC	-0.159
GGGAGAT	-0.0476
CCGCGCC	-0.128
TAGCCCA	0.0772
CAGAAAA	-0.166
GATACGT	-0.0488
ATCGGGG	-0.173
TTTAAGT	-0.19
CTGGGCT	0.107
AAATTTG	0.0858
GTCAGTT	0.0618
AGAGAGA	-0.0331
ATAGGAA	-0.121
TCCCATT	0.214
ACCACAG	0.0366
CTGTTCA	0.0222
ATGCGGA	0.0277
CACAGTT	0.0216
TTGACAA	0.0342

What follows are sequences tested on T5, Rep nickase domain of wheat dwarf virus in the same assay as above.
T5 sequence (protein, residues 1-137, tag omitted): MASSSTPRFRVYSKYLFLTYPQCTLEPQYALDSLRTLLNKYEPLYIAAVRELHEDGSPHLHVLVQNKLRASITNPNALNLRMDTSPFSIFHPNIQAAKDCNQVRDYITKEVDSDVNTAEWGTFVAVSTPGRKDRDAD
Procedure: as §1

Sequence	uncleaved DNA left (log2)
ACGGTGG	-0.15
GGCACGG	0.103
CTTTTAT	-0.0023
CTGTATT	-0.865
TCGTAAA	0.0489
CTTCTGA	-0.0483
AGGTGCT	-0.157
GGGGACT	0.144
TCTGTCC	-0.0628
GAGTATA	0.0587
ATAAGGC	-0.322
GCCCAAA	-0.00198
CACGCCA	-0.195
TCCACGG	-0.0501
TAACAGC	-0.0606
GTGAACG	0.0237
CATGCCT	-0.168
GACTTCA	-0.0289
AAGAGGT	0.0997
TTGTGAT	0.00303

Sequence	uncleaved DNA left (log2)
TCTGTCA	-0.0315
ATCTCCC	-0.263
GGGAGAT	0.19
CCGCGCC	-0.303
TAGCCCA	-0.122
CAGAAAA	-0.0899
GATACGT	0.0159
ATCGGGG	0.131
TTTAAGT	-0.27
CTGGGCT	0.0973
AAATTTG	0.0785
GTCAGTT	-0.0269
AGAGAGA	0.0416
ATAGGAA	0.179
TCCCATT	0.0188
ACCACAG	0.0416
CTGTTCA	-0.00785
ATGCGGA	-0.167
CACAGTT	-0.194
TTGACAA	0.0336
